Measured values from the supplement of paper PMC8728848.
This is one part of the list.

How the values were obtained:
Assay in all cases: glycan array binding signal (z-score within array); higher = stronger binding
Details in all cases: glycan notation: IUPAC condensed, linker removed
[1] = molecular target: GlcNAc(b1-3)Gal(b1-4)GlcNAc(b1-2)Man(a1-3)[GlcNAc(b1-3)Gal(b1-4)GlcNAc(b1-2)Man(a1-6)]Man(b1-4)GlcNAc(b1-4)GlcNAc
Summary of the method: (§1)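 Arrays were curated from the Consortium for Functional Glycomics database, 3228 in total, and kept only where the protein sequence was available. Binding is expressed as a within-array Z-score. This score was averaged across arrays of the same protein sequence at different concentrations or buffers and across linkers, and negative values can be read as non-binding.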

[2] = molecular target: GlcNAc(b1-3)Gal(b1-4)GlcNAc(b1-2)Man(a1-3)[GlcNAc(b1-3)Gal(b1-4)GlcNAc(b1-2)Man(a1-6)]Man(b1-4)GlcNAc(b1-4)[Fuc(a1-6)]GlcNAc
Summary of the method: as §1

[3] = molecular target: GlcNAc(b1-3)Gal(b1-4)GlcNAc(b1-2)[GlcNAc(b1-3)Gal(b1-4)GlcNAc(b1-6)]Man(a1-6)[GlcNAc(b1-3)Gal(b1-4)GlcNAc(b1-2)Man(a1-3)]Man(b1-4)GlcNAc(b1-4)GlcNAc
Summary of the method: as §1

[4] = molecular target: GlcNAc(b1-3)Gal(b1-4)GlcNAc(b1-3)Gal(b1-4)GlcNAc
Summary of the method: as §1

[5] = molecular target: GlcNAc(b1-3)Gal(b1-4)GlcNAc(b1-3)Gal(b1-4)GlcNAc(b1-2)Man(a1-3)[GlcNAc(b1-3)Gal(b1-4)GlcNAc(b1-3)Gal(b1-4)GlcNAc(b1-2)Man(a1-6)]Man(b1-4)GlcNAc(b1-4)GlcNAc
Summary of the method: as §1

[6] = molecular target: GlcNAc(b1-3)Gal(b1-4)GlcNAc(b1-3)Gal(b1-4)GlcNAc(b1-2)Man(a1-3)[GlcNAc(b1-3)Gal(b1-4)GlcNAc(b1-3)Gal(b1-4)GlcNAc(b1-2)Man(a1-6)]Man(b1-4)GlcNAc(b1-4)[Fuc(a1-6)]GlcNAc
Summary of the method: as §1

[7] = molecular target: GlcNAc(b1-3)Gal(b1-4)GlcNAc(b1-3)Gal(b1-4)GlcNAc(b1-2)[GlcNAc(b1-3)Gal(b1-4)GlcNAc(b1-3)Gal(b1-4)GlcNAc(b1-6)]Man(a1-6)[GlcNAc(b1-3)Gal(b1-4)GlcNAc(b1-3)Gal(b1-4)GlcNAc(b1-2)Man(a1-3)]Man(b1-4)GlcNAc(b1-4)[Fuc(a1-6)]GlcNAc
Summary of the method: as §1

[8] = molecular target: GlcNAc(b1-3)Gal(b1-4)GlcNAc(b1-3)Gal(b1-4)GlcNAc(b1-3)Gal(b1-4)GlcNAc(b1-2)Man(a1-3)[GlcNAc(b1-3)Gal(b1-4)GlcNAc(b1-3)Gal(b1-4)GlcNAc(b1-3)Gal(b1-4)GlcNAc(b1-2)Man(a1-6)]Man(b1-4)GlcNAc(b1-4)GlcNAc
Summary of the method: as §1

[9] = molecular target: GlcNAc(b1-3)Gal(b1-4)GlcNAc(b1-3)Gal(b1-4)GlcNAc(b1-3)Gal(b1-4)GlcNAc(b1-2)Man(a1-3)[GlcNAc(b1-3)Gal(b1-4)GlcNAc(b1-3)Gal(b1-4)GlcNAc(b1-3)Gal(b1-4)GlcNAc(b1-2)Man(a1-6)]Man(b1-4)GlcNAc(b1-4)[Fuc(a1-6)]GlcNAc
Summary of the method: as §1

[10] = molecular target: GlcNAc(b1-3)Gal(b1-4)GlcNAc(b1-3)Gal(b1-4)GlcNAc(b1-3)Gal(b1-4)GlcNAc(b1-2)[GlcNAc(b1-3)Gal(b1-4)GlcNAc(b1-3)Gal(b1-4)GlcNAc(b1-3)Gal(b1-4)GlcNAc(b1-6)]Man(a1-6)[GlcNAc(b1-3)Gal(b1-4)GlcNAc(b1-3)Gal(b1-4)GlcNAc(b1-3)Gal(b1-4)GlcNAc(b1-2)Man(a1-3)]Man(b1-4)GlcNAc(b1-4)[Fuc(a1-6)]GlcNAc
Summary of the method: as §1

[11] = molecular target: GlcNAc(b1-3)Gal(b1-4)GlcNAc(b1-3)Gal(b1-4)GlcNAc(b1-3)Gal(b1-4)GlcNAc(b1-3)Gal(b1-4)GlcNAc(b1-2)Man(a1-3)[GlcNAc(b1-3)Gal(b1-4)GlcNAc(b1-3)Gal(b1-4)GlcNAc(b1-3)Gal(b1-4)GlcNAc(b1-3)Gal(b1-4)GlcNAc(b1-2)Man(a1-6)]Man(b1-4)GlcNAc(b1-4)GlcNAc
Summary of the method: as §1

[12] = molecular target: GlcNAc(b1-3)Gal(b1-4)GlcNAc(b1-3)Gal(b1-4)GlcNAc(b1-3)Gal(b1-4)GlcNAc(b1-3)Gal(b1-4)GlcNAc(b1-2)Man(a1-3)[GlcNAc(b1-3)Gal(b1-4)GlcNAc(b1-3)Gal(b1-4)GlcNAc(b1-3)Gal(b1-4)GlcNAc(b1-3)Gal(b1-4)GlcNAc(b1-2)Man(a1-6)]Man(b1-4)GlcNAc(b1-4)[Fuc(a1-6)]GlcNAc
Summary of the method: as §1

[13] = molecular target: GlcNAc(b1-3)Gal(b1-4)GlcNAc(b1-3)Gal(b1-4)GlcNAc(b1-3)Gal(b1-4)GlcNAc(b1-3)Gal(b1-4)GlcNAc(b1-2)[GlcNAc(b1-3)Gal(b1-4)GlcNAc(b1-3)Gal(b1-4)GlcNAc(b1-3)Gal(b1-4)GlcNAc(b1-3)Gal(b1-4)GlcNAc(b1-6)]Man(a1-6)[GlcNAc(b1-3)Gal(b1-4)GlcNAc(b1-3)Gal(b1-4)GlcNAc(b1-3)Gal(b1-4)GlcNAc(b1-3)Gal(b1-4)GlcNAc(b1-2)Man(a1-3)]Man(b1-4)GlcNAc(b1-4)[Fuc(a1-6)]GlcNAc
Summary of the method: as §1

[14] = molecular target: GlcNAc(b1-3)Gal(b1-4)GlcNAc(b1-3)Gal(b1-4)GlcNAc(b1-3)GalNAc
Summary of the method: as §1

[15] = molecular target: GlcNAc(b1-3)Gal(b1-4)GlcNAc(b1-3)GalNAc
Summary of the method: as §1

[16] = molecular target: GlcNAc(b1-3)Gal(b1-4)GlcNAc(b1-3)[GlcNAc(b1-3)Gal(b1-4)GlcNAc(b1-3)]GalNAc
Summary of the method: as §1

[17] = molecular target: GlcNAc(b1-3)Gal(b1-4)GlcNAc(b1-6)[Gal(b1-3)]GalNAc
Summary of the method: as §1

[18] = molecular target: GlcNAc(b1-3)Gal(b1-4)GlcNAc(b1-6)[GlcNAc(b1-3)Gal(b1-3)]GalNAc
Summary of the method: as §1

[19] = molecular target: GlcNAc(b1-3)Gal(b1-4)GlcNAc(b1-6)[GlcNAc(b1-3)]Gal(b1-4)GlcNAc
Summary of the method: as §1

[20] = molecular target: GlcNAc(b1-3)GalNAc
Summary of the method: as §1

[21] = molecular target: GlcNAc(b1-3)Man
Summary of the method: as §1

[22] = molecular target: GlcNAc(b1-3)[GlcNAc(b1-4)][GlcNAc(b1-6)]GlcNAc
Summary of the method: as §1

[23] = molecular target: GlcNAc(b1-3)[GlcNAc(b1-6)]Gal(b1-4)GlcNAc
Summary of the method: as §1

[24] = molecular target: GlcNAc(b1-3)[GlcNAc(b1-6)]Gal(b1-4)GlcNAc(b1-3)[GlcNAc(b1-6)]Gal(b1-4)GlcNAc(b1-3)Gal(b1-4)Glc
Summary of the method: as §1

[25] = molecular target: GlcNAc(b1-3)[GlcNAc(b1-6)]GalNAc
Summary of the method: as §1

[26] = molecular target: GlcNAc(b1-3)[GlcNAc(b1-6)]GlcNAc(b1-4)GlcNAc
Summary of the method: as §1

[27] = molecular target: GlcNAc(b1-4)Fuc
Summary of the method: as §1

[28] = molecular target: GlcNAc(b1-4)Gal(b1-4)GlcNAc
Summary of the method: as §1

[29] = molecular target: GlcNAc(b1-4)GlcNAc
Summary of the method: as §1

[30] = molecular target: GlcNAc(b1-4)GlcNAc(b1-4)GlcNAc
Summary of the method: as §1

[31] = molecular target: GlcNAc(b1-4)GlcNAc(b1-4)GlcNAc(b1-4)GlcNAc(b1-4)GlcNAc
Summary of the method: as §1

[32] = molecular target: GlcNAc(b1-4)GlcNAc(b1-4)GlcNAc(b1-4)GlcNAc(b1-4)GlcNAc(b1-4)GlcNAc
Summary of the method: as §1

[33] = molecular target: GlcNAc(b1-4)[GlcNAc(b1-6)]GalNAc
Summary of the method: as §1

[34] = molecular target: GlcNAc(b1-6)Gal(b1-4)GlcNAc
Summary of the method: as §1

[35] = molecular target: GlcNAc(b1-6)GalNAc
Summary of the method: as §1

[36] = molecular target: GlcNAc3Prop(b1-4)GlcNAc
Summary of the method: as §1

[37] = molecular target: GlcNAc6S(b1-3)Gal(b1-4)GlcNAc
Summary of the method: as §1

[38] = molecular target: HexA(a1-3)GalNAc4S(b1-4)GlcA(b1-3)GalNAc4S
Summary of the method: as §1

[39] = molecular target: HexA(a1-3)GalNAc4S(b1-4)GlcA(b1-3)GalNAc4S(b1-4)GlcA(b1-3)GalNAc4S(b1-4)GlcA(b1-3)GalNAc4S(b1-4)GlcA(b1-3)GalNAc4S(b1-4)GlcA(b1-3)GalNAc4S(b1-4)GlcA(b1-3)GalNAc4S
Summary of the method: as §1

[40] = molecular target: HexA(a1-3)GalNAc4S(b1-4)IdoA(a1-3)GalNAc4S
Summary of the method: as §1

[41] = molecular target: HexA(a1-3)GalNAc4S(b1-4)IdoA(a1-3)GalNAc4S(b1-4)IdoA(a1-3)GalNAc4S(b1-4)IdoA(a1-3)GalNAc4S(b1-4)IdoA(a1-3)GalNAc4S(b1-4)IdoA(a1-3)GalNAc4S(b1-4)IdoA(a1-3)GalNAc4S
Summary of the method: as §1

[42] = molecular target: HexA(a1-3)GalNAc6S(b1-4)GlcA(b1-3)GalNAc6S
Summary of the method: as §1

[43] = molecular target: HexA(a1-3)GalNAc6S(b1-4)GlcA(b1-3)GalNAc6S(b1-4)GlcA(b1-3)GalNAc6S(b1-4)GlcA(b1-3)GalNAc6S(b1-4)GlcA(b1-3)GalNAc6S(b1-4)GlcA(b1-3)GalNAc6S(b1-4)GlcA(b1-3)GalNAc6S
Summary of the method: as §1

[44] = molecular target: HexA2S(a1-4)GlcNS6S
Summary of the method: as §1

[45] = molecular target: Kdn(a2-3)Gal(b1-3)GalNAc
Summary of the method: as §1

B1: CLEC5A (Homo sapiens), Q9NY25 (protein)
chain: MNWHMIISGLIVVVLKVVGMTLFLLYFPQIFNKSNDGFTTTRSYGTVSQIFGSSSPSPNGFITTRSYGTVCPKDWEFYQARCFFLSTSESSWNESRDFCKGKGSTLAIVNTPEKLKFLQDITDAEKYFIGLIYHREEKRWRWINNSVFNGNVTNQNQNFNCATIGLTKTFDAASCDISYRRICEKNAK
- glycan array binding signal (z-score) [1]: -0.117
- glycan array binding signal (z-score) [2]: -0.014
- glycan array binding signal (z-score) [3]: 0.387
- glycan array binding signal (z-score) [4]: -0.611
- glycan array binding signal (z-score) [5]: 0.016
- glycan array binding signal (z-score) [6]: -0.026
- glycan array binding signal (z-score) [7]: -0.102
- glycan array binding signal (z-score) [8]: -0.189
- glycan array binding signal (z-score) [9]: 0.14
- glycan array binding signal (z-score) [10]: -0.068
- glycan array binding signal (z-score) [11]: -0.03
- glycan array binding signal (z-score) [12]: 1.7
- glycan array binding signal (z-score) [13]: -0.084
- glycan array binding signal (z-score) [14]: -0.13
- glycan array binding signal (z-score) [15]: -0.149
- glycan array binding signal (z-score) [16]: -0.093
- glycan array binding signal (z-score) [17]: -0.122
- glycan array binding signal (z-score) [18]: -0.192
- glycan array binding signal (z-score) [19]: -0.094
- glycan array binding signal (z-score) [20]: -0.158
- glycan array binding signal (z-score) [21]: -0.146
- glycan array binding signal (z-score) [22]: -0.14
- glycan array binding signal (z-score) [23]: -0.461
- glycan array binding signal (z-score) [24]: 0.355
- glycan array binding signal (z-score) [25]: -0.407
- glycan array binding signal (z-score) [26]: 0.038
- glycan array binding signal (z-score) [27]: -0.32
- glycan array binding signal (z-score) [28]: -0.194
- glycan array binding signal (z-score) [29]: -0.344
- glycan array binding signal (z-score) [30]: 0.162
- glycan array binding signal (z-score) [31]: -0.01
- glycan array binding signal (z-score) [32]: -0.389
- glycan array binding signal (z-score) [33]: -0.073
- glycan array binding signal (z-score) [34]: -0.037
- glycan array binding signal (z-score) [35]: 0.055
- glycan array binding signal (z-score) [36]: -1.36
- glycan array binding signal (z-score) [37]: 0.188
- glycan array binding signal (z-score) [38]: -0.32
- glycan array binding signal (z-score) [39]: -0.32
- glycan array binding signal (z-score) [40]: 0.066
- glycan array binding signal (z-score) [41]: 0.644
- glycan array binding signal (z-score) [42]: -0.32
- glycan array binding signal (z-score) [43]: 1.03
- glycan array binding signal (z-score) [44]: -0.32
- glycan array binding signal (z-score) [45]: 0.745
